# Data: the supplement of paper PMC8728848
# The list shows a part of the results.
# B1: P-Selectin (Homo sapiens), P16109 (protein)
# chain: MANCQIAILYQRFQRVVFGISQLLCFSALISELTNQKEVAAWTYHYSTKAYSWNISRKYCQNRYTDLVAIQNKNEIDYLNKVLPYYSSYYWIGIRKNNKTWTWVGTKKALTNEAENWADNEPNNKRNNEDCVEIYIKSPSAPGKWNDEHCLKKKHALCYTASCQDMSCSKQGECLETIGNYTCSCYPGFYGPECEYVRECGELELPQHVLMNCSHPLGNFSFNSQCSFHCTDGYQVNGPSKLECLASGIWTNKPPQCLAAQCPPLKIPERGNMTCLHSAKAFQHQSSCSFSCEEGFALVGPEVVQCTASGVWTAPAPVCKAVQCQHLEAPSEGTMDCVHPLTAFAYGSSCKFECQPGYRVRGLDMLRCIDSGHWSAPLPTCEAISCEPLESPVHGSMDCSPSLRAFQYDTNCSFRCAEGFMLRGADIVRCDNLGQWTAPAPVCQALQCQDLPVPNEARVNCSHPFGAFRYQSVCSFTCNEGLLLVGASVLQCLATGNWNSVPPECQAIPCTPLLSPQNGTMTCVQPLGSSSYKSTCQFICDEGYSLSGPERLDCTRSGRWTDSPPMCEAIKCPELFAPEQGSLDCSDTRGEFNVGSTCHFSCDNGFKLEGPNNVECTTSGRWSATPPTCKGIASLPTPGLQCPALTTPGQGTMYCRHHPGTFGFNTTCYFGCNAGFTLIGDSTLSCRPSGQWTAVTPACRAVKCSELHVNKPIAMNCSNLWGNFSYGSICSFHCLEGQLLNGSAQTACQENGHWSTTVPTCQAGPLTIQEASTSITAYKSEGESAEFSFPLNLGEESLQGELRWKAEKAPSSQSWITFSLKNQKVSVQKSTSNPKFQLSETLPLTLQIPQVSLQFAGSGNLTLTLDRGILYQEVNLVVMKVTQPDSNTLTCEVMGPTSPKMRLILKQENQEARVSRQEKVIQVQAPEAGVWQCLLSEGEEVKMDSKIQVLSKGLNSGGGSGGGTGGGDLAPQMLRELQETNAALQDVRELLRQQVKEITFLKNTVMECDACGLDRNLPPLAPLGPHPETLVKVKDAEDQLGARVGYIELDLNSGKILESFRPEERFPMMSTFKVLLCGAVLSRIDAGQEQLGRRIHYSQNDLVEYSPVTEKHLTDGMTVRELCSAAITMSDNTAANLLLTTIGGPKELTAFLHNMGDHVTRLDRWEPELNEAIPNDERDTTMPVAMATTLRKLLTGELLTLASRQQLIDWMEADKVAGPLLRSALPAGWFIADKSGAGERGSRGIIAALGPDGKPSRIVVIYTTGSQATMDERNRQIAEIGASLIKHWGPDYKDHDGDYKDHDIDYKDDDDKGPHHHHHH
# Legend:
# Experiment in all cases: glycan array binding signal (z-score within array); higher = stronger binding
# Conditions in all cases: glycan notation: IUPAC condensed, linker removed
# [1] = target: Gal(b1-2)Gal
# Outline: (§1)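 The binding signal is a Z-score computed within each array and averaged over linkers. Arrays of the same protein sequence at different concentrations or buffers were also averaged together. Data originate from 3228 arrays in the Consortium for Functional Glycomics database, kept only where the protein sequence was available.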
# [2] = target: Gal(b1-3)Gal
# Outline: as §1
# [3] = target: Gal(b1-3)Gal(b1-4)GlcNAc
# Outline: as §1
# [4] = target: Gal(b1-3)GalNAc
# Outline: as §1
# [5] = target: Gal(b1-3)GalNAc(b1-3)Gal(a1-4)Gal(b1-4)Glc
# Outline: as §1
# [6] = target: Gal(b1-3)GalNAc(b1-4)Gal(b1-4)Glc
# Outline: as §1
# [7] = target: Gal(b1-3)GalNAc(b1-4)[Neu5Ac(a2-3)]Gal(b1-4)Glc
# Outline: as §1
# [8] = target: Gal(b1-3)GlcNAc
# Outline: as §1
# [9] = target: Gal(b1-3)GlcNAc(b1-2)Man(a1-3)[Gal(b1-3)GlcNAc(b1-2)Man(a1-6)]Man(b1-4)GlcNAc(b1-4)GlcNAc
# Outline: as §1
# [10] = target: Gal(b1-3)GlcNAc(b1-3)Gal(b1-3)GlcNAc
# Outline: as §1
# [11] = target: Gal(b1-3)GlcNAc(b1-3)Gal(b1-4)Glc
# Outline: as §1
# [12] = target: Gal(b1-3)GlcNAc(b1-3)Gal(b1-4)GlcNAc
# Outline: as §1
# [13] = target: Gal(b1-3)[Fuc(a1-4)]GlcNAc
# Outline: as §1
# [14] = target: Gal(b1-3)[Fuc(a1-4)]GlcNAc(b1-3)Gal(b1-3)[Fuc(a1-4)]GlcNAc
# Outline: as §1
# [15] = target: Gal(b1-3)[Fuc(a1-4)]GlcNAc(b1-3)Gal(b1-4)GlcNAc
# Outline: as §1
# [16] = target: Gal(b1-3)[Fuc(a1-4)]GlcNAc(b1-3)Gal(b1-4)[Fuc(a1-3)]GlcNAc
# Outline: as §1
# [17] = target: Gal(b1-3)[GlcNAc(b1-6)]GalNAc
# Outline: as §1
# [18] = target: Gal(b1-3)[Neu5Ac(a2-6)]GalNAc
# Outline: as §1
# [19] = target: Gal(b1-3)[Neu5Ac(a2-6)]GlcNAc(b1-6)Gal(b1-4)Glc
# Outline: as §1
# [20] = target: Gal(b1-3)[Neu5Ac(b2-6)]GalNAc
# Outline: as §1
# [21] = target: Gal(b1-4)GalNAc(a1-3)[Fuc(a1-2)]Gal(b1-4)GlcNAc
# Outline: as §1
# [22] = target: Gal(b1-4)GalNAc(b1-3)[Fuc(a1-2)]Gal(b1-4)GlcNAc
# Outline: as §1
# [23] = target: Gal(b1-4)Glc
# Outline: as §1
# [24] = target: Gal(b1-4)Glc6S
# Outline: as §1
# [25] = target: Gal(b1-4)GlcNAc
# Outline: as §1
# [26] = target: Gal(b1-4)GlcNAc(a1-6)Gal(b1-4)GlcNAc
# Outline: as §1
# [27] = target: Gal(b1-4)GlcNAc(b1-2)Man(a1-3)[Gal(b1-4)GlcNAc(b1-2)Man(a1-6)]Man(b1-4)GlcNAc(b1-4)GlcNAc
# Outline: as §1
# [28] = target: Gal(b1-4)GlcNAc(b1-3)Gal(b1-3)GlcNAc
# Outline: as §1
# [29] = target: Gal(b1-4)GlcNAc(b1-3)Gal(b1-4)Glc
# Outline: as §1
# [30] = target: Gal(b1-4)GlcNAc(b1-3)Gal(b1-4)GlcNAc
# Outline: as §1
# [31] = target: Gal(b1-4)GlcNAc(b1-3)Gal(b1-4)GlcNAc(b1-3)Gal(b1-4)GlcNAc
# Outline: as §1
# [32] = target: Gal(b1-4)GlcNAc(b1-3)Gal(b1-4)[Fuc(a1-3)]GlcNAc(b1-3)Gal(b1-4)[Fuc(a1-3)]GlcNAc
# Outline: as §1
# [33] = target: Gal(b1-4)GlcNAc(b1-3)GalNAc
# Outline: as §1
# [34] = target: Gal(b1-4)GlcNAc(b1-3)[Gal(b1-4)GlcNAc(b1-6)]Gal(b1-4)GlcNAc
# Outline: as §1
# [35] = target: Gal(b1-4)GlcNAc(b1-3)[GlcNAc(b1-6)]Gal(b1-4)GlcNAc
# Outline: as §1
# [36] = target: Gal(b1-4)GlcNAc(b1-6)Gal(b1-4)GlcNAc
# Outline: as §1
# [37] = target: Gal(b1-4)GlcNAc(b1-6)Gal(b1-4)GlcNAc(b1-6)GalNAc
# Outline: as §1
# [38] = target: Gal(b1-4)GlcNAc(b1-6)GalNAc
# Outline: as §1
# [39] = target: Gal(b1-4)GlcNAc(b1-6)[Gal(b1-3)]GalNAc
# Outline: as §1
# [40] = target: Gal3S(b1-3)GalNAc
# Outline: as §1
# [41] = target: Gal3S(b1-3)GlcNAc
# Outline: as §1
# [42] = target: Gal3S(b1-3)[Fuc(a1-4)]GlcNAc
# Outline: as §1
# [43] = target: Gal3S(b1-4)Glc
# Outline: as §1
# [44] = target: Gal3S(b1-4)Glc6S
# Outline: as §1
# [45] = target: Gal3S(b1-4)GlcNAc
# Outline: as §1
binder,measurement,setting,value
B1,glycan array binding signal (z-score),[1],-0.24
same,glycan array binding signal (z-score),[2],-0.262
same,glycan array binding signal (z-score),[3],-0.454
same,glycan array binding signal (z-score),[4],-0.218
same,glycan array binding signal (z-score),[5],-0.313
same,glycan array binding signal (z-score),[6],-0.365
same,glycan array binding signal (z-score),[7],-0.268
same,glycan array binding signal (z-score),[8],-0.289
same,glycan array binding signal (z-score),[9],1.76
same,glycan array binding signal (z-score),[10],-0.386
same,glycan array binding signal (z-score),[11],-0.271
same,glycan array binding signal (z-score),[12],-0.367
same,glycan array binding signal (z-score),[13],-0.24
same,glycan array binding signal (z-score),[14],-0.189
same,glycan array binding signal (z-score),[15],-0.346
same,glycan array binding signal (z-score),[16],-0.175
same,glycan array binding signal (z-score),[17],-0.25
same,glycan array binding signal (z-score),[18],-0.404
same,glycan array binding signal (z-score),[19],-0.208
same,glycan array binding signal (z-score),[20],-0.425
same,glycan array binding signal (z-score),[21],0.156
same,glycan array binding signal (z-score),[22],-0.401
same,glycan array binding signal (z-score),[23],-0.174
same,glycan array binding signal (z-score),[24],-0.055
same,glycan array binding signal (z-score),[25],-0.374
same,glycan array binding signal (z-score),[26],-0.301
same,glycan array binding signal (z-score),[27],-0.162
same,glycan array binding signal (z-score),[28],-0.238
same,glycan array binding signal (z-score),[29],-0.219
same,glycan array binding signal (z-score),[30],-0.31
same,glycan array binding signal (z-score),[31],-0.277
same,glycan array binding signal (z-score),[32],-0.405
same,glycan array binding signal (z-score),[33],-0.342
same,glycan array binding signal (z-score),[34],-0.358
same,glycan array binding signal (z-score),[35],-0.269
same,glycan array binding signal (z-score),[36],-0.329
same,glycan array binding signal (z-score),[37],-0.387
same,glycan array binding signal (z-score),[38],-0.139
same,glycan array binding signal (z-score),[39],-0.315
same,glycan array binding signal (z-score),[40],-0.113
same,glycan array binding signal (z-score),[41],0.038
same,glycan array binding signal (z-score),[42],0.319
same,glycan array binding signal (z-score),[43],-0.16
same,glycan array binding signal (z-score),[44],0.778
same,glycan array binding signal (z-score),[45],0.035
